Assay results: article PMC12136788
This is one part of the list.

T1: UNK ZnF1-3 (human, UniProt Q9C0B0 31-174)
T1 sequence: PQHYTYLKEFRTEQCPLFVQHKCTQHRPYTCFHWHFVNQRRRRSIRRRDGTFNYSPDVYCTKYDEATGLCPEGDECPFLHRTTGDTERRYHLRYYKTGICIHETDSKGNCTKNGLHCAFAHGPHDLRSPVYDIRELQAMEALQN

B1: chr11:77340908:77340909:-_ENSG00000074201_ENST00000525064|hu_hu|hu_hu_hu_mus_True|98_98 (ssRNA)
RNA: GGGAGUUCUACAGUCCGACGAUCGUUUGGAUCCCUGGAUAAUGCAUGUAAACUAAUGGUGGGGUAUUCCAGUGAGAAUCCUAAUCCCGAACCAUCUAACCAGGACAGGCGGCUCUCCGCGAUGUAAAGCGUGCCGGUGCCGAGCAACAGAGGAUUGAGCAUCA
B2: chr3:9412954:9412955:+_ENSG00000134077_ENST00000452837|hu_mus|hu_hu_hu_mus_False|48_78 (ssRNA)
RNA: GGGAGUUCUACAGUCCGACGAUCGGUUGAUAUCUCUUCUUUGAUGGCUGGAUUUUCAUAAUAAUCUAAGAUAUGUGAAUCUGAAGUAUGGCUAGUGUGCUUUUUCUUACCAUCUUUCUCAUCUGCUUUGUCUCCUUGUCCACACAACAGAGGAUUGAGCAUCA
B3: 138127219_138128546_1353_CDS_ENSMUSG00000006205_ENSMUST00000006367|mouse|control|control (ssRNA)
RNA: GGGAGUUCUACAGUCCGACGAUCGACGUCAUUGGCAGUGACCACAGACUGUCCGUUGAUGCUGAUGAUGACGUCAUUUUCCUUGAGCCCUCCGGCUUCUGCCGGGGUGUCAGGAAUGACUUCAAUGAUAUAUGCCCCAGAGAGCAACAGAGGAUUGAGCAUCA
B4: 187084372_187086566_2436_3pUTR_ENSMUSG00000039318_ENSMUST00000069652|mouse|control|control (ssRNA)
RNA: GGGAGUUCUACAGUCCGACGAUCCGAUGGCCACUUUCAUCUUGCUCAGCAGGGACAGCAUGGUAUGAAGGCAGCAGACAGACUGUGGUUUGUCCAAAAUGUCUUUUUCCUUCGAAAGCCAAACACUUAGGAGCAGAGACAGUACAACAGAGGAUUGAGCAUCA
B5: chr2:121837063:121837064:+_ENSMUSG00000033411_ENSMUST00000110578|mus_mus|FALSE|FALSE (ssRNA)
RNA: GGGAGUUCUACAGUCCGACGAUCAUAUUAGUCAUUCAUAUAUUCUUAACUACCCAGUCUCUUGAUUUUUGAAGAUUUCACCUACAGUAGAAUAUUACAGAACAAAAUAUAAAUGCAUCUUUUAAAUGAAACUUAACAUGGACUCAACAGAGGAUUGAGCAUCA
B6: 72957518_72958873_763_3pUTR_ENSMUSG00000036698_ENSMUST00000044113|mouse|control|control (ssRNA)
RNA: GGGAGUUCUACAGUCCGACGAUCCAUCAAUAUUCAGCAUCAUUUUCCAAAGAGAAGGUCGGACGGACUGAUGGAAGCCAAACCACACUUCUCUGCCCCCACCCAGAGGGUUGGAACAGCCUUCAGAUGCAGUGAAGAAGGAACCAACAGAGGAUUGAGCAUCA
B7: 80652497_80652617_3157_CDS_ENSMUSG00000035051_ENSMUST00000038166|mouse|control|control (ssRNA)
RNA: GGGAGUUCUACAGUCCGACGAUCGUGGUGGCUCGUGAACAAGUGGAAGCAGACCCCUGAUGCGACUCGGCCAGCUCGGCCUUUCCUCUGCAGAGCGUUGGCCUGAGACACGAACGUGUCCUCUAGACUUUCCAUUCCUUUGCCCAACAGAGGAUUGAGCAUCA
B8: chr18:9257185:9257186:+_ENSG00000101745_ENST00000400020|hu_hu|FALSE|FALSE (ssRNA)
RNA: GGGAGUUCUACAGUCCGACGAUCUUGGAAUUGUUUGGUAUGUUCACAAAUGACAGAAGGCAUGCUACAUCUUCGAACUUCUAUGGUAGGUCUCCCCUCGCUUAUAAUUAGUUUAACAUCUUCUACAGAAGAUGACCUAAGAUGCAACAGAGGAUUGAGCAUCA
B9: chr5:79734569:79734570:+_ENSG00000039319_ENST00000505560|hu_hu|motif|central (ssRNA)
RNA: GGGAGUUCUACAGUCCGACGAUCACUUUCUAUAUCAAUGUAAUUAGAGUUGAAGCUAACCUGUGGAUCAGCUGUAGAAUCGGUAGCACAAGUGAUUGGAACAACGGUAUCUGCUGUGCUGGGUUCACUUUCUAUUGUAUCUGGCAACAGAGGAUUGAGCAUCA
B10: chr16:29586362:29586363:+_ENSMUSG00000038084_ENSMUST00000160597|mus_mus|FALSE|FALSE (ssRNA)
RNA: GGGAGUUCUACAGUCCGACGAUCGCCACCUCCAACAGCAGAUCCCAGUAUGAUAUAUCGAAGUUUUAAGAGUCUUGCAGCUAACCUUGCUGGCCAAAAGUUCCUGCGGGGCUGGUAGCCAUAUUUAAUUGGAGAAAGUUUCAACAACAGAGGAUUGAGCAUCA
B11: chr6:15520614:15520615:+_ENSG00000008083_ENST00000341776|hu_mus|FALSE|FALSE (ssRNA)
RNA: GGGAGUUCUACAGUCCGACGAUCUAGAUAUCUACGUACAAAAACUUGAACAGUUUAAUGCUAAAACAAAAUCAGUUCUCUAAAACCAGAAGAAAUUCUUCUUUAGAGCUAGUGCAAAGACAGCUUGUAUCCUACAGCAAGUACCAACAGAGGAUUGAGCAUCA
B12: chr5:95130247:95130248:+_ENSG00000164292_ENST00000379982|hu_mus|FALSE|FALSE (ssRNA)
RNA: GGGAGUUCUACAGUCCGACGAUCAUGCCUUUGAGCAUCUUGCAGAACCAUUUCUGCCAAUAUAUGCUAUGAGAGAAACUAACUCUGCCUUUUAUCCCAGACACCAUCGUCUCUACAUCUAGGAUAUCUUUGAUGUACAUAAUUCAACAGAGGAUUGAGCAUCA
B13: 68847805_68855150_758_CDS_ENSMUSG00000022332_ENSMUST00000022954|mouse|control|control (ssRNA)
RNA: GGGAGUUCUACAGUCCGACGAUCCCUGAUUUCAUCAUUAUAGUCAGGGAUCAGGAAUUUCUUGAUCUCUUCCAAGGCGUGCCCCAUCCGGGCAUAUGCUUCUGCUGGGGGUGCGAACACUUCAAUGAGCACGUGCAGGUCGUCCAACAGAGGAUUGAGCAUCA
B14: chr14:66974463:66974464:+_ENSMUSG00000022044_ENSMUST00000074523|mus_hu|mus_mus_mus_hu_False|1_68 (ssRNA)
RNA: GGGAGUUCUACAGUCCGACGAUCUUGUAGGACGACUUAUUCAGGGGAUCGGCCAGGAAGCAGGAGCAGAACAGAGACACCAGCGGGAGCUCCUUCAUCUUCUCUUUGUAGGCAGCAAGGGUCAUGUUUCUGGGAUCCUGGUGGCAACAGAGGAUUGAGCAUCA
B15: chr3:98235988:98235989:-_ENSG00000080822_ENST00000341181|hu_mus|FALSE|FALSE (ssRNA)
RNA: GGGAGUUCUACAGUCCGACGAUCCAGGCUGCGGCAGAUACAGGCACAGAGGCCAAUCAACGCCCCAAAGCACAUCAAGCCCAAGCUGACGAAGGGUAAAAGGAACUGGCAGCGCCACAGGUAGGUGCGAAGCAGGUCGAUGCCCAACAGAGGAUUGAGCAUCA
B16: chr10:75830775:75830776:+_ENSG00000035403_ENST00000372755|perfect_dup|motif|central (ssRNA)
RNA: GGGAGUUCUACAGUCCGACGAUCCAUAGUUUCCACUACCUCUGCCACUGUAAGAUAUUCCAAAAUUCCUUUGCAAACCCGGAUAAUUUUACGAACCUCAGCCUCAUCGAAGGUAAGCAGUAGGUCAGAUGUGCCAGAAAGGAUCAACAGAGGAUUGAGCAUCA
B17: chr2:104630212:104630213:-_ENSMUSG00000074994_ENSMUST00000117237|mus_hu|FALSE|FALSE (ssRNA)
RNA: GGGAGUUCUACAGUCCGACGAUCUGUAGUGUUAAAAGUUGAAUCCUGAAGCACCAAAGGUGAAGUGGUAGCAAAGUUUCUAUUGCUGAAGGUGGUGGGAUGCUGAUAAGCAGAGAGAGAUGGUGGAAGUGUUCCAGUGCUUGGCAACAGAGGAUUGAGCAUCA
B18: 9304462_9304582_1663_3pUTR_ENSG00000166471_ENST00000528080|human|control|control (ssRNA)
RNA: GGGAGUUCUACAGUCCGACGAUCAGAGCUAGACUCCGUCUCAAAACAGAAAAAAAAAAAAAAAAAAAAAGAGGAAGAAAAUGUAAAUCUCUUUUUAAGUUUUCCAGUUUAUGCUCUGAAAAAAGCCUAACAUUAACAAAACCUCAACAGAGGAUUGAGCAUCA
B19: chr15:66793332:66793333:-_ENSG00000174444_ENST00000568588|hu_mus|FALSE|FALSE (ssRNA)
RNA: GGGAGUUCUACAGUCCGACGAUCCAUGGGCAGGUUAUAGUUACUCUUGAGGGAAGCAGCCUUCCGCCAAGUGCCAUACAGCUCAUCCAACUUCCGGAAAGCACUCUCCGUCCAGAUGCAGAAACGGCCCACAUGCCCACCAGGCAACAGAGGAUUGAGCAUCA
B20: chr2:168009416:168009417:-_ENSMUSG00000051149_ENSMUST00000088001|perfect_dup|FALSE|FALSE (ssRNA)
RNA: GGGAGUUCUACAGUCCGACGAUCCAUAUGGUUGAGUAGGGUAUCUGUAGGCAAAUAGCGAUUACAGUAGAGGCAUUUGCUAGUAAAAUUGUGUAUUUUCAUAAUGUAGUUAGCUACGGCUGGGACUUUCUCAGCUUUAUGCUCCAACAGAGGAUUGAGCAUCA
B21: chrX:101152592:101152593:-_ENSMUSG00000056537_ENSMUST00000070705|mus_mus|motif|central (ssRNA)
RNA: GGGAGUUCUACAGUCCGACGAUCUUAAGUCUGCAGUAUGACAUCGUACAUAGGGAAAAAGCUUCUUCCUAAAAGAUAGCGGUUAAUAAUCAAACCAGAUUUCAUGACUGACCUUUCAAGGUCUCUUUCUGCAUUAAACAAGGUCAACAGAGGAUUGAGCAUCA
B22: chr19:16406628:16406629:+_ENSMUSG00000024639_ENSMUST00000025541|mus_hu|motif|central (ssRNA)
RNA: GGGAGUUCUACAGUCCGACGAUCGACACUUUGUAAGUCAAAGGGGUAUUCGAUGAUCCCUGUGGUGGGGACUCGAACUCGGAGCACAUCUUGUUGCGUAGGCAGGUAGGCAGGGUCAGCUACGCGGUCCAAGUCAUUAAGAUACAACAGAGGAUUGAGCAUCA

Target: T1, UNK ZnF1-3
Assay: nsRBNS (natural sequence RNA bind-n-seq); RBNS binding buffer (assumed for nsRBNS): 25 mM Tris pH 7.5, 150 mM KCl, 3 mM MgCl2, 0.01% Triton X-100, 500 ug/ml BSA, 20 U/ml SUPERase-In, 4 C; UNK is unkempt and MSI1 is Musashi-1; names of the RNAs are library labels; protein concentration not given here; high values mean tight binding

| Binder | binding signal |
| --- | --- |
| B1 | 0.947 enrichment R |
| B2 | 0.407 enrichment R |
| B3 | 0.715 enrichment R |
| B4 | 0.969 enrichment R |
| B5 | 0.979 enrichment R |
| B6 | 2.08 enrichment R |
| B7 | 0.885 enrichment R |
| B8 | 1.02 enrichment R |
| B9 | 0.913 enrichment R |
| B10 | 1.72 enrichment R |
| B11 | 0.812 enrichment R |
| B12 | 0.682 enrichment R |
| B13 | 0.79 enrichment R |
| B14 | 1.81 enrichment R |
| B15 | 1.18 enrichment R |
| B16 | 1.26 enrichment R |
| B17 | 2.41 enrichment R |
| B18 | 1.87 enrichment R |
| B19 | 1.23 enrichment R |
| B20 | 2.12 enrichment R |
| B21 | 0.867 enrichment R |
| B22 | 1.23 enrichment R |
